Test results from patent US20230227565A1, “Method for Treating CD127-Positive Cancers by Administering an Anti-CD127 Agent” (OSE IMMUNOTHERAPEUTICS, priority 2021, published 2023).

How the values were obtained:
REH cell line = assay: In vitro phagocytosis assay, REH; type: cell-based, human; conditions: FIG. 10, compared with anti-CD47 5F9
hCD32a/FcγRIIa = biological target: T1, hCD32a/FcγRIIa (Homo sapiens, UniProt P12318); assay: ELISA binding to FcγR, CD32a; conditions: FIG. 17B
T1 construct: purchased R&D Systems 1330-CD-050
T1 sequence (P12318 34-317): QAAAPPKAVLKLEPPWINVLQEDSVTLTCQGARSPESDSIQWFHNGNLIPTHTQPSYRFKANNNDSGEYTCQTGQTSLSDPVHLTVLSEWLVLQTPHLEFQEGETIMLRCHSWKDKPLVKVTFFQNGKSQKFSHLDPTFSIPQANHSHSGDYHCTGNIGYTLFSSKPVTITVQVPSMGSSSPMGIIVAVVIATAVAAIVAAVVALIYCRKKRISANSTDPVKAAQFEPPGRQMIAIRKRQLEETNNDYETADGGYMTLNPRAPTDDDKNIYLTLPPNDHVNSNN
Description: (§1) ELISA binding to FcγR. For binding ELISA assay, recombinant hCD64/FcγRI (R&Dsystems, Minneapolis, Minn., USA; reference 1257-FC-050) or hCD32a/FcγRIIa (R&Dsystems, Minneapolis, Minn., USA; reference 1330-CD-050) or hCD16a/FcγRIIIa (R&Dsystems, Minneapolis, Minn., USA; reference 4325-FC-050) was immobilized on plastic at 2 μg/ml in borate buffer (pH9) and purified antibody were added to measure binding.

[1] = tested on: T-ALL patient-derived xenograft; assay: Leukemia development in four T-ALL patient-derived xenografted mice (FIG. 1C); type: in vivo; conditions: four T-ALL PDX; control mice 20 to 90% engraftment
Description: (§2) Assessment of in vivo efficacy of treatment through peripheral blast reduction measurement. […] Blast reduction was calculated by subtracting the percentage of leukemic blasts in treated mice from the percentage of leukemic blasts detected in corresponding control animals.

[2] = tested on: B-ALL and T-ALL patient derived xenografts; assay: Overt leukemia ALL PDX, combination with standard of care
[3] = tested on: human MSTO-211H biphasic malignant mesothelioma cells; assay: In vitro phagocytosis assay, mesothelioma cells; type: cell-based; conditions: FIG. 23B; increasing doses
NALM6 CDX = assay: NALM6 cell line derived xenograft (CDX) model; type: in vivo, mice; conditions: FIG. 20D
[4] = tested on: T-cell ALL cell lines (HPB-ALL and DND41 IL7R mut.); assay: In vitro phagocytosis assay, T-ALL cell lines (FIG. 7); type: cell-based, human; conditions: increasing doses
[5] = tested on: B-ALL cell lines (697 t(1;19), NALM6 (DUX4) and REH t(12;21)); assay: In vitro phagocytosis assay, B-ALL cell lines (FIG. 8); type: cell-based, human; conditions: increasing doses
macrophages [6] = tested on: macrophages
[7] = Phase I study in healthy volunteers; conditions: single dose 0.002-10 mg/kg IV or 1 mg/kg SC, or two doses 6 or 10 mg/kg 2 weeks apart
normal T cells = assay: Phagocytosis of normal T cells by macrophages; type: cell-based, human; conditions: FIG. 10
[8] = tested on: B-ALL patient derived xenograft; assay: B-ALL patient derived xenograft with weak p-STAT5 signaling (FIG. 21D); type: in vivo, mice
NALM6 cells = assay: In vitro phagocytosis assay, NALM6; type: cell-based, human
Excerpt: Visualization of engulfed leukemic cells (CPD+) by M1 human macrophages (CTG+) was investigated in parallel to flow cytometry analysis using a Nikon ECLIPSE Ti2 microscope using the NIS-Elements software (Nikon, Minato City, Tokyo, Japan).

[9] = tested on: CD127 signaling (p-STAT5) in T-ALL patient leukemic blasts; assay: P-STAT5 probing by flow cytometry, T-ALL patient leukemic blasts; type: cell-based, human; conditions: FIG. 19C; IL-7 stimulation
Description: (§3) P-STAT5 probing by flow cytometry: Cells were starved overnight in TexMacs medium (Miltenyi, Bergisch Gladbach, Germany; reference 130-097-196). After 30 min incubation in TexMacs medium (37° C.) supplemented with anti-CD127 agents, cells were stimulated with 5 ng/mL rhIL-7 (AbDSerotec, Raleigh, North Carolina, USA; reference PHP046) at 37° C. The reaction was then stopped by incubation on ice for 5 min and cells were fixed and permeabilized using the Phospho-Flow protocol from BD Biosciences, Franklin Lakes, N.J., USA (Cytofix/Cytoperm buffer and Perm/ Wash buffer (BD biosciences reference 554714) Perm buffer III (BD biosciences reference 558050)). Phospho-STAT5 detection was measured using the AlexaFluor647 anti-human pStat5 antibody (BD biosciences reference 612599) following the manufacturer's instructions.

[10] = tested on: T-ALL patient leukemic blasts; assay: In vitro phagocytosis assay, T-ALL patient leukemic blasts; type: cell-based, human; conditions: FIG. 19D
[11] = tested on: human CD127+ cells (T cells); assay: ADCC assay with Natural Killer cells; type: cell-based; conditions: FIGS. 11B and 11C
Description: ADCC assay. 1 million human freshly isolated T cells were labelled with 15 uL ^51Cr (5 mCi/ml, PerkinElmer, Waltham, Mass., USA, cat# NEZ030001MC) for 1 h at 37° C., 5% CO2. T cells were then washed until radioactivity (measured by radioactive gamma counter) was absent in the supernatant. 25 μl/well of T cells-^51Cr target cells at 0.4 million cells/mL (10,000 cells/w) were seeded on P96-microtiter plate (flat bottom). 25 μl/well of anti-hCD127 antibodies were added in triplicate at 200 ng/mL (100 ng/mL final concentration) and left to incubate for 15 min at RT. […] As positive control of cytotoxicity, 75 μL of SDS 10% was added in 3 wells for 10 min before reading. Eventually, 25 μL/w supernatant were placed into radioactive reader plate and 100 μL/w Microscint Scintillant (PerkinElmer cat# 60136211) were added. Release of ^51Cr in supernatant was measured by radioactive gamma counter in counts per minutes (cpm). […]
For ADCC assay illustrated on FIG. 10C, effector cells, NK cells, were purified by negative selection (NK isolation kit, Miltenyi) from human PBMC and incubated with 150 UI/mL of IL-2 overnight at 37° C., 5% CO2. […] After incubation, substrate One Glo Luciferase product (2×) was added to each well to measure the number of live CD127-positive-Luc+ cells by chemiluminescence in a TECAN plate reader. […]

[12] = tested on: CD127 signaling (p-STAT5) in HPB-ALL cells; assay: P-STAT5 probing by flow cytometry, HPB-ALL; type: cell-based, human; conditions: IL-7 5 ng/mL; IL-7 responsive T-ALL cell line
Description: as §3

HPB-ALL cells = assay: In vitro phagocytosis assay, HPB-ALL; type: cell-based, human
[13] = tested on: CD127 signaling (p-STAT5) in DND41 cells; assay: P-STAT5 probing by flow cytometry, DND41; type: cell-based, human; conditions: FIG. 22B; IL-7R mutated, constitutively activated T-ALL cell line
Description: as §3

hCD16a/FcγRIIIa = biological target: T2, hCD16a/FcγRIIIa (Homo sapiens, UniProt P08637); assay: ELISA binding to FcγR, CD16a; conditions: FIG. 17A
T2 construct: purchased R&D Systems 4325-FC-050
Description: as §1

[14] = tested on: CD127 signaling (p-STAT5) in NALM6 cells; assay: P-STAT5 probing by flow cytometry, NALM6; type: cell-based, human; conditions: FIG. 20B; IL-7 unresponsive B-ALL cell line
Description: as §3

DND41 CDX = assay: DND41 cell line derived xenograft (CDX) model; type: in vivo, mice; conditions: FIG. 22D
[15] = tested on: T-ALL patient derived xenograft; assay: IL-7 dependent T-ALL patient derived xenograft (FIG. 19G); type: in vivo, mice
[16] = tested on: T-ALL patient-derived xenograft; assay: Overt leukemia PDX cohort, 15 T-ALL specimens (FIG. 2D); type: in vivo, mice; conditions: control 44 days, p=0.04
Description: (§4) In overt leukemia experiments, mice were injected with 1 million BCP-ALL patient derived xenograft cells (n=10) of E2A-PBX1 positive patients (n=2 patients).

[17] = tested on: B- and T-ALL patient derived xenografts; assay: Peripheral blast reduction in 23 ALL PDX mice (FIG. 5); type: in vivo; conditions: 23 different ALL PDX
Description: as §2

DND41 cells = assay: In vitro phagocytosis assay, DND41; type: cell-based; conditions: FIG. 22A; human macrophages
macrophages [18] = tested on: macrophages; remark: listed apart in the source
[19] = tested on: B-ALL patient leukemic blasts; assay: In vitro phagocytosis assay, B-ALL patient leukemic blasts; type: cell-based, human; conditions: FIG. 21C
[20] = tested on: B-ALL patient-derived xenograft; assay: Overt leukemia PDX cohort, 12 B-ALL specimens (FIG. 2C); type: in vivo, mice; conditions: control 61 days, p=0.007
Description: as §4

hCD64/FcγRI = biological target: T3, hCD64/FcγRI (Homo sapiens, UniProt P12314); assay: ELISA binding to FcγR, CD64; conditions: FIG. 17C
T3 construct: purchased R&D Systems 1257-FC-050
Description: as §1

[21] = tested on: CD127-positive tumor cells; assay: In vitro phagocytosis (ADCP) assay, ALL cell lines expressing CD127; type: cell-based; conditions: human macrophages
HPB-ALL CDX = assay: HPB-ALL cell line derived xenograft (CDX) model; type: in vivo, mice; conditions: FIG. 18D

T3 sequence (P12314 16-374): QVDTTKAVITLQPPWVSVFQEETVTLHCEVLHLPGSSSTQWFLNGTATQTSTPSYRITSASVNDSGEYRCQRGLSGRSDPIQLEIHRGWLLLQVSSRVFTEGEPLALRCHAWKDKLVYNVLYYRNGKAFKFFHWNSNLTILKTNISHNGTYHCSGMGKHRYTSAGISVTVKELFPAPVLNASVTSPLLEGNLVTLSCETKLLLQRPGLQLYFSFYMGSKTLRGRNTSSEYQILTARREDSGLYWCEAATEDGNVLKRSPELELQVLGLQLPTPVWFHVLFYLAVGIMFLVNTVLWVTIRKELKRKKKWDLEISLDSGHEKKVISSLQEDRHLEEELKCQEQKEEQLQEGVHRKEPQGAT
T2 sequence (P08637 17-254): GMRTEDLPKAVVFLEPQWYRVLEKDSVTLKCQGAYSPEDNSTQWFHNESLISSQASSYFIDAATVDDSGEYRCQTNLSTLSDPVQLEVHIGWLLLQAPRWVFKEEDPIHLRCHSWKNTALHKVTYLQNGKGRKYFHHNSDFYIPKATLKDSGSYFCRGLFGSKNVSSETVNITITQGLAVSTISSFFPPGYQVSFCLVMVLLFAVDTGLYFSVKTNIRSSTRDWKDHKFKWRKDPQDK

B1: N13B2-hVL6: antagonist IgG4 anti-CD127 monoclonal antibody, ADCP+/ADCC-; heavy chain SEQ ID No. 27, light chain SEQ ID No. 28 (antibody)
heavy: QVQLVESGGGLVKPGGSLRLSCAVSGFTLSDYYMAWIRQAPGKGLEWVSTISASGLRTYYPDSVKGRFTISRDNAKNSLYLQMNSLRAEDTAVYYCARPLSAHYGFNYFDYWGQGTLVTVSSASTKGPSVFPLAPCSRSTSESTAALGCLVKDYFPEPVTVSWNSGALTSGVHTFPAVLQSSGLYSLSSVVTVPSSSLGTKTYTCNVDHKPSNTKVDKRV[human IgG4 Fc with S228P L445P (EU numbers) not listed]
light: DIQMTQSPSSLSASVGDRVTITCRTSEDIYQGLAWYQQKPGKAPKLLLYSANTLHIGVPSRFSGSGSGTDYTLTISSLQPEDFATYYCQQYYDYPLAFGGGTKVEIKRTVAAPSVFIFPPSDEQLKSGTASVVCLLNNFYPREAKVQWKVDNALQSGNSQESVTEQDSKDSTYSLSSTLTLSKADYEKHKVYACEVTHQGLSSPVTKSFNRGEC
- phagocytosis of tumor cells by macrophages (REH cell line): higher increase in phagocytosis of the tumor cells than that of an anti-CD47 agent
- binding to CD32a (hCD32a/FcγRIIa): does not bind efficiently
- leukemic blasts in the peripheral blood [1]: absent
- survival, combination with standard of care ([2]; FIG. 14C, cohort of 8 ALL specimens, SOC Dexamethasone+Oncaspar+Vincristine): synergistic efficacy
- survival at 260 days, single treatment ([2]; FIG. 15B, 9 PDX): did not survive
- mice alive 260 days after injection, combination with standard of care ([2]; FIG. 15B, 9 PDX, (5/9)): more than 50%
- leukemic blasts in the bone marrow or the spleen, combination with standard of care ([2]; FIG. 15C, mice that survived more than 260 days): not detected
- phagocytosis of CD127+ human mesothelioma cells [3]: enhances the phagocytosis
- antileukemic activity (overall survival) (NALM6 CDX): antileukemic activity
- phagocytosis of T-ALL tumor cells by macrophages [4]: very efficient
- phagocytosis of B-ALL tumor cells by macrophages [5]: the most efficient
- autophagocytosis of macrophages (macrophages [6]): no autophagocytosis
- safety and tolerability [7]: safe and well-tolerated
- phagocytosis of normal T cells by macrophages (normal T cells): does not have any significant impact
- anti-leukemic activity (overall survival) [8]: exerts anti-leukemic activity
- phagocytosis of leukemia cells by macrophages (microscopy) (NALM6 cells; FIG. 6, human M1 macrophages): leads to the phagocytosis of leukemia cells by macrophages
- phagocytosis index, combination with anti-CD47 antibody Magrolimab (5F9) (NALM6 cells; FIG. 14B): synergetic effect
- induction of ADCP (NALM6 cells; FIG. 20A, human macrophages): induces ADCP
- inhibition of CD127 signaling (p-STAT5) [9]: efficiently inhibit CD127 signaling
- induction of ADCP [10]: induce ADCP
- ADCC by Natural Killer cells [11]: lacks ADCC capacities
- inhibition of CD127 signaling (p-STAT5) [12]: efficiently inhibit CD127 signaling
- phagocytosis index, combination with dexamethasone (HPB-ALL cells; FIG. 14A, Dexamethasone 10 μM for 48 h): synergetic effect
- induction of ADCP (HPB-ALL cells; human macrophages): able to induce ADCP
- inhibition of CD127 signaling (p-STAT5) [13]: cannot inhibit CD127 signaling
- binding to CD16a (hCD16a/FcγRIIIa): does not bind efficiently
- inhibition of CD127 signaling (p-STAT5) [14]: cannot inhibit CD127 signaling
- antileukemic activity (overall survival) (DND41 CDX): antileukemic activity
- anti-leukemic activity (overall survival) [15]: exerts anti-leukemic activity
- median overall survival [16]: 71 days
- leukemic blast reduction compared to control treatment [17]: leukemic blast reduction
- induction of ADCP (DND41 cells): induces ADCP
- overall number of live macrophages (macrophages [18]): not impacted
- induction of ADCP [19]: induced efficiently
- median overall survival [20]: 91 days
- binding to CD64 (hCD64/FcγRI): does not bind efficiently
- phagocytosis (ADCP) of CD127-positive tumor cells by macrophages [21]: enhanced; also recorded: the strongest ADCP capability; also recorded: superior ADCP capacities
- antileukemic activity (overall survival) (HPB-ALL CDX): antileukemic activity

Entries after “also recorded” stand apart in the source; their conditions may differ.
